The structures appear in SMILES notation. In all, about 13,000 compounds were measured (“IFI”: median about 4, highest 2% from about 17 on). The list shows a part of the results.

This assay is described as follows: GSK_TCMDC: Inhibition Frequency Index (IFI). The number of non-kinase HTS assays where a compound showed > 50 % inhibition, expressed as a percentage of the number of such assays in which the compound was tested (-0 is zero). Format: functional.
Take `Cc1cccc(CNc2nc(C)cc(N[C@@H](CC(C)C)C(=O)NCc3cccc(F)c3)n2)c1`: the IFI was found to be 9.52%.

As to `O=C(/C=C/c1ccc(Cl)c(Cl)c1)NCCCCCN1CCN(C(=O)Nc2ccc(OC(F)F)cc2)CC1`, the IFI came to 8.05%.

The molecule `COc1ccc(CNCCc2cccs2)cc1-c1ccc(S(=O)(=O)NCCN2CCCC2)cc1` yielded an IFI of 6.93%.

`FC(F)(F)COc1ccc(CCNCCCCNCCc2ccc(OCC(F)(F)F)c3ccccc23)c2ccccc12` yielded an IFI of 20.3%.

`CN(C)CCn1c(N)c(-c2nc3ccccc3s2)c2nc(C#N)c(C#N)nc21` showed an IFI of 3.92%.

Molecule `CCc1c[nH]c2c(N3CCCS3(=O)=O)cc(C(=O)N[C@@H](Cc3ccccc3)[C@H](O)CNC(C)(C)c3cccc(C(F)(F)F)c3)cc12` yielded an IFI of 4.38%.

`CSc1cccc(NC(=O)Nc2ccc(I)c(OCCN(C)C)c2)c1`: the IFI worked out at 3.79%.

With `CC(Sc1nc(-c2ccccc2)c(-c2ccccc2)o1)C(=O)NC1CC1` (centres undefined), the IFI was found to be 3.28%.

Take `CC(C)(C)c1ccc(-c2cc(C(=O)N[C@@H](CO)C(=O)O)on2)cc1.CC(C)(C)c1ccc(-c2nocc2C(=O)N[C@@H](CO)C(=O)O)cc1`: the IFI is -0%.

In the case of `CCCCCCN(C(=O)OCc1ccccc1)C1CCN(C(=O)OC(C)(C)C)CC1C(=O)OCC` (centres undefined), the IFI is 2.99%.

Molecule `CCCCCN1CCC(NC(=O)c2ccc(C(=O)Nc3ccc(C(C)C)cc3)cc2)C1` (centres undefined) registered an IFI of 10.9%.

In turn, `CCOc1ccc(C(=O)Nc2cc(Br)c3c(c2)CNCC3)cc1Br` returned an IFI of 7.09%.

Turning to `COC(=O)c1cccc(CNCc2ccc(-c3cccc(-c4nc5cccc(C)c5[nH]4)c3)cc2)c1`, the IFI was 5.71%.

As to `CC1(C)N=C(N)N=C(N)N1O`, the IFI was -0%.

`CCCCC(=O)Nc1nonc1-c1ccc(OCC)c(OCC)c1` returned an IFI of -0%.

`CC(C)(C)c1ccc(CN2CCC(CNC(=O)c3cc(-c4cccc(Cl)c4)cs3)C2)cc1` (centres undefined) displayed an IFI of 12.2%.

`CC(=O)Nc1nc(C(=O)Nc2cccc(-c3cccc(-c4nc5ccccc5[nH]4)c3)c2)cs1`: the IFI came out at 3.48%.

The molecule `Cc1ccc2[nH]c(-c3ccc(C=CC(=O)NC4CCN(Cc5ccccc5)CC4)cc3)nc2c1` registered an IFI of 1.52%.

`CCCNCc1ccc(-c2ccc(CN(Cc3cnc(C)cn3)C(=O)c3nn(-c4ccccc4)nc3C)cc2)nc1` registered an IFI of 3.03%.

With `CS(=O)(=O)CCNCc1cc(-c2cc3ncnc(Nc4ccc(OCc5cccc(F)c5)c(Cl)c4)c3s2)cs1`, the IFI was found to be 2.96%.

Molecule `NC1CCCN(Cc2cccc(-c3ccc(-c4nc5ccccc5[nH]4)cc3)c2)C1` (centres undefined) returned an IFI of 2.82%.

For the molecule `N#CC(c1ccc(Cl)cc1)c1ccc2c(C(F)(F)F)cc(C(F)(F)F)nc2n1` (centres undefined), the IFI is 5.84%.

Molecule `COc1ccc(CNCc2cccc(-c3cccc(-c4nc5cc(C(F)(F)F)ccc5[nH]4)c3)c2)cc1` gave an IFI of 10.5%.

In turn, `CC(O)C1CCCCN1C(=O)c1cccc(-c2ccc(-c3nc4cc(F)ccc4[nH]3)cc2)c1` (centres undefined) came in with an IFI of 8.57%.

The values are drawn from ChEMBL document CHEMBL1157539, “Thousands of chemical starting points for antimalarial lead identification” (Nature, 2010).
